Source: patent US20160166634A1 (Novartis, published 2016)

T1: human APJ receptor (hAPJ) (human, UniProt P35414 1-380)
T1 sequence (looked up): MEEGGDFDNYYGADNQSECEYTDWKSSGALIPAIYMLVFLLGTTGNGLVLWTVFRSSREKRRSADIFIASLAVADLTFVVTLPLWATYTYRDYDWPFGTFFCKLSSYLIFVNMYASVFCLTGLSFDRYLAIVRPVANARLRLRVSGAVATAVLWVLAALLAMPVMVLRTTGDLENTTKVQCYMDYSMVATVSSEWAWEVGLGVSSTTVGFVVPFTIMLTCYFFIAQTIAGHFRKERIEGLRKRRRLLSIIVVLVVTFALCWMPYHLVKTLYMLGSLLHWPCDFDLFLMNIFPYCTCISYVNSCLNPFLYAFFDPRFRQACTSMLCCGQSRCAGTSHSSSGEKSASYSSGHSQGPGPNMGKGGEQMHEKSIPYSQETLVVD

B1: Example 15 Fc-Apelin fusion (Fc fusion)
chain: [skipping human IgG1 Fc with changes]AGGGGSGGGGSGGGGSQRPRLCHKGPMC
modifications: disulfide between the two C* cysteines of the apelin part
B2: Example 5 Fc-Apelin fusion (Fc fusion)
chain: [skipping human IgG1 Fc with changes]GGGGSGGGGSGGGGSQRPRLSHKGPMPF
B3: Example 9 Fc-Apelin fusion (Fc fusion)
chain: [skipping human IgG1 Fc with changes]AGGGGSGGGGSGGGGSQRPRLCHKGPMCF
modifications: disulfide between the two C* cysteines of the apelin part

Molecular target: T1, human APJ receptor (hAPJ)
Experiment: cell-based or functional assay

Row | Binder | hAPJ Ca2+ Flux EC50
1 | B1 | 13.6 nM
2 | B2 | 8.4 nM
3 | B3 | 7.9 nM
